The other results are listed elsewhere or left out.
Experiments:
Experiment in all cases: glycan array binding signal (z-score within array); higher = stronger binding
Conditions in all cases: glycan notation: IUPAC condensed, linker removed
[1] = target: Fuc(a1-2)[GalNAc(a1-3)]Gal(b1-4)GlcNAc(b1-3)[Fuc(a1-2)[GalNAc(a1-3)]Gal(b1-4)GlcNAc(b1-6)]GalNAc
Outline: (§1)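 Glycan array data were curated from 3228 arrays in the Consortium for Functional Glycomics database and kept only where the protein sequence was available. Glycan names were converted to IUPAC-condensed notation, and columns mapping to the same glycan were averaged. The binding signal is a within-array Z-score, averaged across arrays of the same protein sequence at different concentrations or buffers and across linkers. Negative Z-scores can be read as non-binding.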

[2] = target: Fuc(a1-2)[GalNAc(a1-3)]Gal(b1-4)GlcNAc(b1-6)GalNAc
Outline: as §1

[3] = target: Fuc(a1-2)[GalNAc(a1-3)]Gal(b1-4)[Fuc(a1-3)]GlcNAc
Outline: as §1

[4] = target: Fuc(a1-2)[GalNAc(a1-3)]Gal(b1-4)[Fuc(a1-3)]GlcNAc(b1-3)GalNAc
Outline: as §1

[5] = target: Fuc(a1-2)[GalNAc(a1-4)]Gal(b1-4)GlcNAc
Outline: as §1

[6] = target: Fuc(a1-2)[GalNAc(b1-3)]Gal
Outline: as §1

Fuc(a1-3)GlcNAc = target: Fuc(a1-3)GlcNAc
Outline: as §1

[7] = target: Fuc(a1-3)[Gal(b1-4)]Glc6S
Outline: as §1

[8] = target: Fuc(a1-3)[Gal(b1-4)]GlcNAc
Outline: as §1

[9] = target: Fuc(a1-3)[Gal(b1-4)]GlcNAc(b1-2)Man
Outline: as §1

[10] = target: Fuc(a1-3)[Gal(b1-4)]GlcNAc(b1-2)Man(a1-3)[Fuc(a1-3)[Gal(b1-4)]GlcNAc(b1-2)Man(a1-6)]Man(b1-4)GlcNAc(b1-4)GlcNAc
Outline: as §1

[11] = target: Fuc(a1-3)[Gal(b1-4)]GlcNAc(b1-2)Man(a1-3)[Fuc(a1-3)[Gal(b1-4)]GlcNAc(b1-2)Man(a1-6)]Man(b1-4)GlcNAc(b1-4)[Fuc(a1-6)]GlcNAc
Outline: as §1

[12] = target: Fuc(a1-3)[Gal(b1-4)]GlcNAc(b1-2)Man(a1-6)[Gal(b1-4)GlcNAc(b1-2)Man(a1-3)]Man(b1-4)GlcNAc(b1-4)GlcNAc
Outline: as §1

[13] = target: Fuc(a1-3)[Gal(b1-4)]GlcNAc(b1-3)Gal(b1-3)[Fuc(a1-4)]GlcNAc
Outline: as §1

[14] = target: Fuc(a1-3)[Gal(b1-4)]GlcNAc(b1-3)GalNAc
Outline: as §1

[15] = target: Fuc(a1-3)[Gal(b1-4)]GlcNAc(b1-4)Gal(b1-4)[Fuc(a1-3)]GlcNAc
Outline: as §1

[16] = target: Fuc(a1-3)[Gal(b1-4)]GlcNAc(b1-4)Gal(b1-4)[Fuc(a1-3)]GlcNAc(b1-4)Gal(b1-4)[Fuc(a1-3)]GlcNAc
Outline: as §1

[17] = target: Fuc(a1-3)[Gal(b1-4)]GlcNAc(b1-6)GalNAc
Outline: as §1

[18] = target: Fuc(a1-3)[Gal(b1-4)]GlcNAc(b1-6)[Gal(b1-3)GlcNAc(b1-3)]Gal(b1-4)Glc
Outline: as §1

[19] = target: Fuc(a1-3)[Gal(b1-4)]GlcNAc6S
Outline: as §1

[20] = target: Fuc(a1-3)[Gal3S(b1-4)]Glc
Outline: as §1

[21] = target: Fuc(a1-3)[Gal3S(b1-4)]Glc6S
Outline: as §1

[22] = target: Fuc(a1-3)[Gal3S(b1-4)]GlcNAc
Outline: as §1

[23] = target: Fuc(a1-3)[Gal3S(b1-4)]GlcNAc6S
Outline: as §1

[24] = target: Fuc(a1-3)[GalNAc(b1-4)]Gal(b1-4)GlcNAc
Outline: as §1

[25] = target: Fuc(a1-3)[GalNAc(b1-4)]GlcNAc
Outline: as §1

[26] = target: Fuc(a1-3)[GalNAc(b1-4)]GlcNAc6S
Outline: as §1

Fuc(a1-4)GlcNAc = target: Fuc(a1-4)GlcNAc
Outline: as §1

Fuc(b1-3)GlcNAc = target: Fuc(b1-3)GlcNAc
Outline: as §1

Gal(a1-2)Gal = target: Gal(a1-2)Gal
Outline: as §1

Gal(a1-3)Gal = target: Gal(a1-3)Gal
Outline: as §1

Gal(a1-3)Gal(b1-3)Glc = target: Gal(a1-3)Gal(b1-3)Glc
Outline: as §1

Gal(a1-3)Gal(b1-3)GlcNAc = target: Gal(a1-3)Gal(b1-3)GlcNAc
Outline: as §1

[27] = target: Gal(a1-3)Gal(b1-3)GlcNAc(b1-2)Man
Outline: as §1

[28] = target: Gal(a1-3)Gal(b1-3)GlcNAc(b1-2)Man(a1-3)[Gal(a1-3)Gal(b1-3)GlcNAc(b1-2)Man(a1-6)]Man(b1-4)GlcNAc(b1-4)GlcNAc
Outline: as §1

[29] = target: Gal(a1-3)Gal(b1-3)GlcNAc(b1-3)GalNAc
Outline: as §1

[30] = target: Gal(a1-3)Gal(b1-3)GlcNAc(b1-6)GalNAc
Outline: as §1

[31] = target: Gal(a1-3)Gal(b1-3)[Fuc(a1-4)]GlcNAc(b1-2)Man(a1-3)[Gal(a1-3)Gal(b1-3)[Fuc(a1-4)]GlcNAc(b1-2)Man(a1-6)]Man(b1-4)GlcNAc(b1-4)GlcNAc
Outline: as §1

Gal(a1-3)Gal(b1-4)Glc = target: Gal(a1-3)Gal(b1-4)Glc
Outline: as §1

Gal(a1-3)Gal(b1-4)GlcNAc = target: Gal(a1-3)Gal(b1-4)GlcNAc
Outline: as §1

[32] = target: Gal(a1-3)Gal(b1-4)GlcNAc(b1-2)Man
Outline: as §1

[33] = target: Gal(a1-3)Gal(b1-4)GlcNAc(b1-2)Man(a1-3)[Gal(a1-3)Gal(b1-4)GlcNAc(b1-2)Man(a1-6)]Man(b1-4)GlcNAc(b1-4)GlcNAc
Outline: as §1

[34] = target: Gal(a1-3)Gal(b1-4)GlcNAc(b1-3)GalNAc
Outline: as §1

[35] = target: Gal(a1-3)Gal(b1-4)GlcNAc(b1-6)GalNAc
Outline: as §1

[36] = target: Gal(a1-3)Gal(b1-4)[Fuc(a1-3)]GalNAc
Outline: as §1

B1: Gal 2 (Homo sapiens), P05162 (protein)
chain: MTGELEVKNMDMKPGSTLKITGSIADGTDGFVINLGQGTDKLNLHFNPRFSESTIVCNSLDGSNWGQEQREDHLCFSPGSEVKFTVTFESDKFKVKLPDGHELTFPNRLGHSHLSYLSVRGGFNMSSFKLKE
Question: Which results are given for B1?
Answer: glycan array binding signal (z-score) [1]: 1.35; glycan array binding signal (z-score) [2]: -0.043; glycan array binding signal (z-score) [3]: -0.192; glycan array binding signal (z-score) [4]: -0.08; glycan array binding signal (z-score) [5]: -0.27; glycan array binding signal (z-score) [6]: -0.239; glycan array binding signal (z-score) (Fuc(a1-3)GlcNAc): -0.254; glycan array binding signal (z-score) [7]: -0.184; glycan array binding signal (z-score) [8]: -0.043; glycan array binding signal (z-score) [9]: -0.305; glycan array binding signal (z-score) [10]: -0.229; glycan array binding signal (z-score) [11]: -0.182; glycan array binding signal (z-score) [12]: -0.223; glycan array binding signal (z-score) [13]: -0.205; glycan array binding signal (z-score) [14]: -0.294; glycan array binding signal (z-score) [15]: -0.253; glycan array binding signal (z-score) [16]: -0.279; glycan array binding signal (z-score) [17]: -0.025; glycan array binding signal (z-score) [18]: -0.256; glycan array binding signal (z-score) [19]: -0.2; glycan array binding signal (z-score) [20]: -0.187; glycan array binding signal (z-score) [21]: -0.198; glycan array binding signal (z-score) [22]: -0.185; glycan array binding signal (z-score) [23]: -0.204; glycan array binding signal (z-score) [24]: -0.166; glycan array binding signal (z-score) [25]: -0.226; glycan array binding signal (z-score) [26]: -0.198; glycan array binding signal (z-score) (Fuc(a1-4)GlcNAc): -0.261; glycan array binding signal (z-score) (Fuc(b1-3)GlcNAc): -0.269; glycan array binding signal (z-score) (Gal(a1-2)Gal): -0.275; glycan array binding signal (z-score) (Gal(a1-3)Gal): -0.286; glycan array binding signal (z-score) (Gal(a1-3)Gal(b1-3)Glc): 0.618; glycan array binding signal (z-score) (Gal(a1-3)Gal(b1-3)GlcNAc): 1.12; glycan array binding signal (z-score) [27]: -0.221; glycan array binding signal (z-score) [28]: -0.222; glycan array binding signal (z-score) [29]: -0.228; glycan array binding signal (z-score) [30]: -0.05; glycan array binding signal (z-score) [31]: -0.037; glycan array binding signal (z-score) (Gal(a1-3)Gal(b1-4)Glc): -0.188; glycan array binding signal (z-score) (Gal(a1-3)Gal(b1-4)GlcNAc): 0.355; glycan array binding signal (z-score) [32]: -0.1; glycan array binding signal (z-score) [33]: 0.518; glycan array binding signal (z-score) [34]: -0.086; glycan array binding signal (z-score) [35]: -0.164; glycan array binding signal (z-score) [36]: -0.524
